According to patent US12209142B2, “SARS-CoV-2 epitope-targeted peptide immunostimulants” (Institute for Systems Biology, priority 2020, dated 2025):
Where a SMILES comes first, the peptide text is derived from it. Bridges are numbered along the chain shown (N, C = ends). Triazole bridges read from a SMILES are 1,4-linked. Where no end group is shown, it is not given here. [ ]: non-standard residue; d: D form. The star is where a group is joined. Biotin = O=C1N[C@H]2[C@H](CS[C@H]2CCCCC(=O)*)N1; Lys(N3) = [N-]=[N+]=NCCCC[C@H](N)C(=O)O; PEG5 = NCCOCCOCCOCCOCCOCCC(=O)O; Pra = C#CC[C@H](N)C(=O)O

Tested on: MrkA-expressing K. pneumoniae cells
Test: Whole-cell ELISA of biotinylated PCC binding
Settings: strain BAA 1705, 50 μM PCC

## cy(LLFFA): control compound differing from cy(LLFFF) by a single phenyl moiety ([Lys(N3)]LLFFA[Pra]; triazole 1-7)
  whole-cell ELISA signal at high PCC concentration, LB or G-CAA: bound K. pneumoniae cells regardless of MrkA-expression level

## CC(C)C[C@@H]1NC(=O)[C@@H](NC(=O)CCOCCOCCOCCOCCOCCNC(=O)CCCC[C@@H]2SC[C@@H]3NC(=O)N[C@@H]32)Cc2cn(nn2)CCCC[C@@H](C(N)=O)NC(=O)[C@H](Cc2ccccc2)NC(=O)[C@H](Cc2ccccc2)NC(=O)[C@H](Cc2ccccc2)NC(=O)[C@H](CC(C)C)NC1=O [cy(LLFFF)] ({Biotin-PEG5}-[Pra]LLFFF[Lys(N3)]-NH2; triazole 1-7; N-terminus and C-terminus assumed)
  whole-cell ELISA signal at high PCC concentration, LB or G-CAA: bound K. pneumoniae cells regardless of MrkA-expression level
